Among the data in paper PMC4906230 are binding values, retold here.

This test concerns the target T1, Flag-tagged full-length RIG-I (human) (UniProt O95786).
T1 sequence: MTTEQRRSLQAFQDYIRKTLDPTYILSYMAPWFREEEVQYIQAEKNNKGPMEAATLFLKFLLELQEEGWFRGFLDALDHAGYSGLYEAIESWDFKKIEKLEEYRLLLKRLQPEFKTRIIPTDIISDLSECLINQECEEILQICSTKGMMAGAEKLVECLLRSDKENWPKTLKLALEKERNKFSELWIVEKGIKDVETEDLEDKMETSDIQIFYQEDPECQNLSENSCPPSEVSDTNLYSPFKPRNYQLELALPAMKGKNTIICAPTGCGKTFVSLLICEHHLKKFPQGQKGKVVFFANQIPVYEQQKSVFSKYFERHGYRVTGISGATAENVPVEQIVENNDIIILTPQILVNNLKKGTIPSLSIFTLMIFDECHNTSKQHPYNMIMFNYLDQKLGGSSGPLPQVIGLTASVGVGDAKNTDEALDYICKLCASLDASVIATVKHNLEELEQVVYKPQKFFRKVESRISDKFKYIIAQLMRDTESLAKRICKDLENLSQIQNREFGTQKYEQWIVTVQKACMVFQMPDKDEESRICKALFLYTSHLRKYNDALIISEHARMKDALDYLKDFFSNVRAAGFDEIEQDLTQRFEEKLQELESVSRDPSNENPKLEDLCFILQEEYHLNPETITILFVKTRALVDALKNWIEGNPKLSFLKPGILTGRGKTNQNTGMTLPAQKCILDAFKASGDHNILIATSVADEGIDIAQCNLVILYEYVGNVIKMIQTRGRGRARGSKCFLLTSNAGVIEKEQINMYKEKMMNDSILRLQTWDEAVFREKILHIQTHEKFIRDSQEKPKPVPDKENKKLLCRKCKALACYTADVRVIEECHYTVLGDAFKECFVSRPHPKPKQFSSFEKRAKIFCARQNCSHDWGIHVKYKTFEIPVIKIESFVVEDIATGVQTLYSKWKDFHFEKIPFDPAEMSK
In words: co-IP; HEK293 cells transfected with epitope-tagged expression plasmids, lysed 24 h later; lysates immunoprecipitated with anti-Myc or anti-Flag beads and immunoblotted; in Fig. 7f,g with SDC4 overexpressed or knocked down by siRNA.

Results are given in words; binding and its absence hold for the method and conditions named. In cells and extracts the contact can be indirect. Some results given as binding are weak or reduced against the parent protein; the word gives no strength. Sequences can lack the tags named with a protein.

B1: Myc-tagged SDC4 (protein, UniProt P31431 19-198)
chain: ESIRETEVIDPQDLLEGRYFSGALPDDEDVVGPGQESDDFELSGSGDLDDLEDSMIGPEVVHPLVPLDNHIPERAGSGSQVPTEPKKLEENEVIPKRISPVEESEDVSNKVSMSSTVQGSNIFERTEVLAALIVGGIVGILFAVFLILLLMYRMKKKDEGSYDLGKKPIYKKAPTNEFYA
Consider B1, for which the binding result is “binds”.
